From the RNAGym collection of RNA variant scans (doi:10.7554/elife.90254)
The source gives no read counts; variants with many changes may rest on few reads.

B1: LINE1-full (parent)
chain: UACGUAGGUGGUUUUCCCCUGAUAGUGCUAAGGGGGCCUGGAAGUUUGGACUGGGCAGAGCUCAACACAGCGUGGCAAAGUGGCUGUGGCUAGACUGCCUCUCUGGAUUCCUCGUCACUCAGCAGGGCAUCUCUGAGAGAAAUGCC

Variants of: B1
Experiment: self-cleavage, relative activity (ratio to wild type); higher = more cleavage; in vitro, sequencing; the parent is a self-cleaving ribozyme

Variant | self-cleavage
U87A G89A U143A | 0.05
U13C A30G U52A | 0.22
A42G A59G A124U | 0.09
A78G U132A U134G | 2.63
A6G A22U U104C | 0.24
G36A U62A A65U U104C | 0.06
U5C U73C A121U | 0.77
A69G U85C U134C | 0.97
U81C U109C C116U G126A U130C | 1.36
G35A U81A U102A | 1.59
A42G G58C A121G A138G | 0
U47C U115A A142G | 2.09
C37G A59G A79U | 0.45
A30G A42G A57U | 0.75
U5C A107G U109C | 0
G33C U85C U109C U115C | 0
A31G A43G U108C A138U | 0
U5C G53A U62C G125U | 0.04
U39C U87C A138U | 0.04
A42G U85G U91A | 0.16
U12C C71U U81A U115C A140U | 1.3
U12G A69U U102C C113U | 0.2
C19A U96A A107G A142G | 0.15
U23C A42G U73A | 1.8

Variant | self-cleavage
U5C U23C A138G | 0.97
A30G U46C U143C | 0.88
U14C U45C A64G U143A | 0
U5C A67G U119C | 2.3
A31U G72U U143C | 0.46
U15C C19U A30U | 0.98
U39C U62C G72A A117U | 0.02
A77U U87C A129G | 0.28
G11A A78G G89A G139U A141G | 0.06
U39C A79U U91C A141G U143A | 0.95
U5G U13C A43G | 0.56
A31U A107G A141G A142G | 0
A6G U14C A79C A140G | 1.31
U13C U81C U102C A129U | 0.69
C56U U119C A140G | 0.5
U13C A117U U132C | 1.37
U9C U39C G53A | 1.58
G55U A77G U115C | 0.7
G32A A42G U52C | 1.01
U39A U81A C120U | 1.29
C28G A92U A124C U143C | 0.18
U20A U96C U104A | 0.07
A30G A138G A142G | 1.41
A57G U109C A138G | 0.21

Variant | self-cleavage
C19U U109C A141G | 1.51
A6G A42G A65G A92G C118U | 0
U26A U73C A77U U112C | 0.75
A79G U104C A141U | 2.3
A78G U85C A140U | 0.22
A42G C71A U81A | 0.4
U87C A124G A142G | 0.07
U5C U85C U119C | 0.37
A69U U100C U130C A138G | 0.3
U1C A42G A69U A107G A124U | 0.22
C17U A42U G97A | 0.07
U13G U132C A141G | 0.65
C71A A77U U100C A124G U130C A142G | 1.73
U46A A69G U102C U132C | 0.27
G74A G97A U100C U119C | 0.2
U39C A64U U91C | 0.17
U46C U81C U134A | 1.48
A42U U47C C84U | 0.22
A65G A107G U112C G127U A138U | 0
U20G U62A A79G | 0.05
U87A A107G A121U A138U | 0.03
A65U A79U A136G | 0.24
U1G U12G U45C A69G G122A | 0.84
A67U U87G U119C | 1.27

Variant | self-cleavage
A67G A92G G105A A142G | 0.26
U47C U85A A121G A140G | 0.38
U14C U39G U73A | 1.68
C56G A64U A79U | 0.04
U9A U46G U47C U52C A77U | 1.53
U9G U47A G58U A121G | 0.26
G127U A136G A138G | 1.59
U46C U52C U115A U119A | 1.08
U20C A77G G127A | 2.68
A31U A69G A79G C128U U143A | 0.17
A2G A94G U132C | 0.57
A94G U100C C110A | 0.64
U47C A94G C98U | 0.28
U20C A42G A50U A57G G86A | 0.09
A43G G105A U108C U115C A140G | 1.23
U13C U39C U102A U134C | 1.35
A67G U73A U100C G114A U134C | 0.57
U20C A124G A141G | 1.86
U26A A65G U134C | 0.07
C84G A124G U143C | 0.46
C56U U130C A140G | 0.07
U14C A24G A65U | 0.36
U62C U85A A107G | 0.08
G41A U47A A57U A121G | 0.12

Variant | self-cleavage
U96C U134C G139A | 0.14
A24U C37G U85C A129G | 0.36
A6U A107G A121U | 0.74
A2G U62C C84U A138G | 0.24
A22G A65G A67U A92G | 0.34
A43G A50G A59G A77U A141G | 0.11
U20C A92U A94C | 0.11
U14G A94U A141G | 0.7
A57G U102C A141U | 0.63
A50U A59U A64G | 0.2
A78G A138G C145U C146U | 2.22
U14C U100A U115A | 0.89
G48A U62C A141G | 0.05
G4A G11A A65G C68U | 0.08
A43G U119C A141G | 1.61
G21A A42G U73C U130C A138U | 1.67
G11A A78U U112C | 1.37
U23C U112A U115C | 0
U20A A59U A78G | 0.7
U26C A77U C90G | 0.05
G10A A94G A124G | 0
U115A A140G A142G | 1.59
A59G U87G C98G A107G | 0.35
A2G C17A A78G G97A A121G | 0.52

Variant | self-cleavage
U13A U15C U108A | 1.15
U14C C71U U100C | 1.66
U13C A31G U132C | 0
G54A U85C A124G | 0.06
A64U A78G A142G | 0.32
A138G A142G G144A | 1.38
U5C U62C G80U A94G | 0.27
A42U U81C U85A | 0.07
A43G C131A A140G | 1.89
G49A A50G U115C U132C | 1.02
U23C A43U U132C | 2.01
U14C U46C C51U U81A | 1.96
U13C C63A A79U U109C | 0.11
U13C U45C A69G | 0.63
A31U U47A A138U | 0.7
U12G U29C U108C | 1.53
A24G A31G A117G A138G | 0.84
U13A A57U U130C G135U | 0.13
G4A A6G C17A C84G | 0.23
A117U U119C A142G | 0.64
G44A U73C A94G | 0.65
A24U U115C A129G A141U | 2.38
A22G A94G A121U U130C | 0.09
G7A U46C A50G U91A U109A | 1.48

Variant | self-cleavage
U45C A64U U119C A129G | 0.45
A24G U39A U91C | 0.84
A6G A65G G74A U85C A140G A142G U143C | 0.22
U9C G33U A43G | 0.94
A30G A67U U112C | 0.18
U23C U29C U130C | 2.07
A69G U73C C84U A129G A142G | 0
U45C U47A G74A U81C | 0.97
U13C C28U C37U A59G U134C | 0.05
A64G G86U U119C A124U | 0.15
U13C U29A G72A U115C | 0.63
A6U G35C U96C | 0.1
G35A A69G U134A A140G | 0.11
A77U U104A U130C | 1.47
U45C U87A A136U | 0.34
C17A A30U A129G A138U | 0.24
C19A A24U A136U | 0.46
U5C U91C C146U | 0.47
U12C U73A A92G | 0.28
U15C U87C A140G | 0.1
A57G A59C C84U U102C | 0.09
U12A U46A G114C G137C A142G | 1.05
U23A G40U G83A | 0.21
